This note sets out measurements from PubChem BioAssay AID1963576 (National Center for Advancing Translational Sciences (NCATS), 2024).

Out of some 46,000 compounds screened, about 60 (0.1%) were called active. About 3% were inconclusive and are not listed. Calls come from the whole dose curve; as a rule, active = well fitted inhibition curve with a large enough effect; inconclusive = small, poorly fitted or top-dose-only effect; inactive = no such curve, though single readings can be large or run the other way. This is one part of the list.

A short description of this assay: Primary qHTS assay for Inhibitors of ovarian cancer metastasis using an organotypic tumor microenvironment (TME) model.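 For activity change, negative = inhibition: plate controls were DMSO wells for no effect and tomatine positive control wells for full effect.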 Note: nearly all actives have a fitted effect of over 65% in size. The conditions noted are these: SKOV3ip1-GFP adhesion/invasion on 3D omental model, fluorescence; series mostly up to 45.8 µM; activity change, negative = inhibition: at the top concentration. In short, it runs like this: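 Primary human omental fibroblast/mesothelial 3D culture pre-formed 48 h. SKOV3ip1-GFP cells added with compounds (0.36-46 umol/L), incubated 2 h RT/16 h 37 C, fixed; GFP cells quantified at 488/509 nm.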
Consider `Cc1cc(N2CCC(C)CC2)nc2ccc(NC(=O)CCC(=O)N3CCN(c4ccccc4F)CC3)cc12`, for which the “activity change, negative = inhibition” value is inactive: -3.46%. Same read-out and setting: the same measure for `Cc1ccc(N(C)C(=O)C2CCN(S(=O)(=O)c3cn(C)cn3)CC2)cc1`: inactive: -3.73%; for `CCn1c(=O)c2sccc2n2c(CCC(=O)Nc3ccc(C(C)C)cc3)nnc12`: inactive: -6.01%. Turning to `CCn1c(=O)c2cc(C(=O)NCCc3ccc(Cl)cc3)sc2c2ccccc21`, the outcome was inactive.

For `Cc1ccc(C)c(NS(=O)(=O)c2ccc3oc(=O)c4ncn(C)c4c3c2)c1`, the “activity change, negative = inhibition” value was inactive: 2.82%. Regarding `CC1CCN(CCCNC(=O)CN2C(=O)CSc3ccc(S(=O)(=O)N4CCOCC4)cc32)CC1`, the “activity change, negative = inhibition” value was inactive: 4.2%. The same measure, in the same setting: the same measure for `COc1cc(C2c3c(oc4ccccc4c3=O)C(=O)N2Cc2ccc(C)cc2)ccc1O` (stereo unspecified): inactive: -3.88%. Take `CCc1nnc(SC(CC)C(=O)Nc2cc(C)ccc2C)c2cc3occc3n12` (stereo unspecified): the outcome was inactive. In the case of `COc1ccc(OCC(=O)NC(Cc2c[nH]c3ccccc23)C(=O)O)cc1` (stereo unspecified), the “activity change, negative = inhibition” value is inactive: 14.9%. On the same count and under the same terms, the same measure for `CN(C)CCc1c[nH]c2ccc(CS(=O)(=O)N3CCCC3)cc12`: inactive: -16.9%; for `COc1ccc(NC(=O)c2cc3c(=O)n(Cc4cccnc4)ccc3nc2C)c(OC)c1`: inactive: 0.177%; for `Cc1cccc(CN2C(=O)c3ccccc3S(=O)(=O)c3ccc(C(=O)NC4CCCCC4)cc32)c1`: inactive: 3.89%. The same measure, in the same setting: the same measure for `CC(NC(=O)CSc1nc(-c2ccccc2F)nc2cc(=O)[nH]n12)c1nc2ccccc2n1C` (stereo unspecified): inactive: -5.07%; for `Cc1ccc(CNC(=O)Cn2ccn(-c3ccc(F)cc3)c(=O)c2=O)cc1`: inactive: 3.9%; for `O=C(Nc1ccc(N2CCOCC2)c(C(=O)O)c1)c1ccc(Br)cc1`: inactive: -13.5%.

For the compound `Cc1ccc2nc3c(cc(C(=O)NCc4ccco4)c(=N)n3C(C)C)c(=O)n2c1`, the “activity change, negative = inhibition” value is inactive: -7.81%. Consider `Cc1ccc(NC(=O)c2c(C)oc3ncn(CC(C)C)c(=O)c23)nc1`, for which the call was inactive. As for `CC(=O)c1cccc(NC(=O)Cn2cc(C(=O)c3cccc(Cl)c3)c(=O)c3ccc(C)nc32)c1`, the “activity change, negative = inhibition” value is inactive: -2.12%. The same measure, in the same setting: the same measure for `CCC(=O)N1CCCc2cc(S(=O)(=O)N3CCC(C(=O)Nc4ccc(C#N)cc4)CC3)ccc21`: inactive: 2.06%; for `Cc1cccc2c(=O)cc(CSc3ccccc3NC(=O)C(C)(C)C)[nH]c12`: inactive: -0.148%; for `CCCC(=O)Nc1ccccc1C(=O)OCc1cc(=O)n2nc(C(C)C)sc2n1`: inactive: -5.98%. The same measure, in the same setting: the same measure for `COc1ccc(OCc2ccc(-c3nc(C#N)c(NCc4cccnc4)o3)o2)cc1`: inactive: -4.5%; for `CCOC(=O)c1cc(S(=O)(=O)NCc2ccc(OC)cc2)[nH]n1`: inactive: 5.05%. On to `COC(=O)c1ccc(-n2c(/C=C/c3cc(OC)c(OC)c(OC)c3)nc3cc(Cl)ccc3c2=O)cc1`, for which the compound was called inactive. With `Cc1cc(C)cc(NC(=O)N2CCN(C(=O)c3nsc4ccccc34)CC2)c1`, the “activity change, negative = inhibition” value is inactive: -5.99%.

`COc1ccc(OC)c(S(=O)(=O)N2CCN(Cc3nc4ccc(C)cc4o3)CC2)c1`: the “activity change, negative = inhibition” value was inactive: 2.3%.
